Consider 45 compounds from article PMC11995724, “Antibiotic target discovery by integrated phenotypic and activity-based profiling of electrophilic fragments” (Cell chemical biology, 2025).

Among all 3,200 compounds or so, about 75 (2%) showed an effect of 50% or more. The list shows a part of the results.

The test system of the assay is T1, S. aureus MSSA476.
T1 construct: MSSA476
Also noted: species or system S. aureus MSSA476 (TSB) or V. cholerae SAD30 (LB); 384-well bacterial growth screen at 25 uM, OD600 relative to DMSO control. The conditions noted are these: relative growth, OD600, TSB; 25 µM; inhibitor.
As for `N#CC(=Cc1ccc(OC(F)F)cc1)C(=O)Nc1nccs1` [8-F14, 2-cyano-3-[4-(difluoromethoxy)phenyl]-N-(1,3-thiazol-2-yl)prop-2-enamide], the “% of control remaining” value was 95.6017%.
Consider `CC(Cl)C(=O)Nc1ccccc1C(=O)c1ccccc1` (stereo not drawn) [6-G10, N-(2-benzoylphenyl)-2-chloropropanamide], for which the “% of control remaining” value was found to be 105.854%.
Take `CC(Cl)C(=O)NCCC1=CCCCC1` (stereo not drawn) [6-E11, 2-chloro-N-[2-(cyclohex-1-en-1-yl)ethyl]propanamide]: the “% of control remaining” value was 91.8537%.
The value for `N#CC(=Cc1ccc(F)cc1)C(=O)Nc1ccccc1C(F)(F)F` [8-I18, 2-cyano-3-(4-fluorophenyl)-N-[2-(trifluoromethyl)phenyl]prop-2-enamide] was 106.888%; that for `C=CC(=O)Nc1nc(-c2cccs2)cs1` [1-D08, N-[4-(thiophen-2-yl)-1,3-thiazol-2-yl]prop-2-enamide] was 97.0549%.
Regarding `O=C(CCl)NCC1(c2ccc3c(c2)OCCO3)CCCC1` [4-I11, 2-chloro-N-{[1-(2,3-dihydro-1,4-benzodioxin-6-yl)cyclopentyl]methyl}acetamide], the “% of control remaining” value is 92.2344%.
As to `C=CC(=O)NCc1ccsc1S(N)(=O)=O` [2-J15, N-[(2-sulfamoylthiophen-3-yl)methyl]prop-2-enamide], the “% of control remaining” value is listed as 115.231%.
In the case of `C=CC(=O)Nc1ccccc1C1CC1(F)F` (stereo not drawn) [1-M15, N-[2-(2,2-difluorocyclopropyl)phenyl]prop-2-enamide], the “% of control remaining” value was 110.066%.
`N#CC(=Cc1ccsc1)C(=O)Nc1cccc2ccccc12` [9-M09, 2-cyano-N-(naphthalen-1-yl)-3-(thiophen-3-yl)prop-2-enamide]: the “% of control remaining” value turned out to be 97.0787%.
In the case of `COc1ccc(NC(=O)CCl)cc1S(=O)(=O)N(C)C` [4-E15, 2-chloro-N-[3-(dimethylsulfamoyl)-4-methoxyphenyl]acetamide], the “% of control remaining” value is 109.385%.
With `Cc1ccc(C(=O)c2ccccc2)c(NC(=O)CCl)c1` [4-B19, N-(2-benzoyl-5-methylphenyl)-2-chloroacetamide], the “% of control remaining” value is given as 107.48%.
Turning to `CC(Cl)C(=O)N[C@H]1C[C@H](C)S(=O)(=O)c2sccc21` (stereo partly drawn) [6-B22, 2-chloro-N-[(2S,4S)-2-methyl-1,1-dioxo-2H,3H,4H-1lambda6-thieno[2,3-b]thiopyran-4-yl]propanamide], the “% of control remaining” value worked out at 105.171%.
Regarding `C=CC(=O)Nc1ccc2c(c1)N(C)CC2` [1-G13, N-(1-methyl-2,3-dihydro-1H-indol-6-yl)prop-2-enamide], the “% of control remaining” value is reported as 105.495%.
The value for `CC(Cl)C(=O)NCCN1C(=O)CSC1=O` (stereo not drawn) [5-M03, 2-chloro-N-[2-(2,4-dioxo-1,3-thiazolidin-3-yl)ethyl]propanamide] was 94.7177%; that for `CC(Cl)C(=O)N1CCC(c2nc(N(C)C)no2)CC1` (stereo not drawn) [6-F05, 2-chloro-1-{4-[3-(dimethylamino)-1,2,4-oxadiazol-5-yl]piperidin-1-yl}propan-1-one] was 116.098%; that for `C=CC(=O)NCC1CCCN1S(=O)(=O)CC` (stereo not drawn) [3-F19, N-{[1-(ethanesulfonyl)pyrrolidin-2-yl]methyl}prop-2-enamide] was 99.6082%.
On to `CC(Cl)C(=O)NCCc1ccnn1C` (stereo not drawn) [7-I21, 2-chloro-N-[2-(1-methyl-1H-pyrazol-5-yl)ethyl]propanamide], for which the “% of control remaining” value was 97.9592%.
The value for `Cc1c(Cl)cccc1NC(=O)C(C#N)=Cc1cccs1` [9-B05, N-(3-chloro-2-methylphenyl)-2-cyano-3-(thiophen-2-yl)prop-2-enamide] was 105.768%; that for `CC(c1cccc([N+](=O)[O-])c1)N(C)C(=O)CCl` (stereo not drawn) [6-G06, 2-chloro-N-methyl-N-[1-(3-nitrophenyl)ethyl]acetamide] was 70.6829%; that for `Cc1cc(C)c(C=C(C#N)C(=O)Nc2nccs2)cc1C` [8-P21, 2-cyano-N-(1,3-thiazol-2-yl)-3-(2,4,5-trimethylphenyl)prop-2-enamide] was 108.216%.
As for `O=C(CCl)c1sccc1Cl` [10-K11, 2-chloro-1-(3-chlorothiophen-2-yl)ethan-1-one], the “% of control remaining” value is reported as 10.3125%.
As to `C=CC(=O)NC1CCCN(C(=O)CCC(F)(F)F)C1` (stereo not drawn) [1-B03, N-[1-(4,4,4-trifluorobutanoyl)piperidin-3-yl]prop-2-enamide], the “% of control remaining” value is listed as 102.681%.
Take `COc1ccc(C=C(C#N)C(=O)Nc2cccc3c2C(=O)NC3=O)cc1` [8-F13, 2-cyano-N-(1,3-dioxo-2,3-dihydro-1H-isoindol-4-yl)-3-(4-methoxyphenyl)prop-2-enamide]: the “% of control remaining” value is listed as 118.838%.
Consider `N#CC(=Cc1cc2ccccc2o1)C(=O)NCc1ccco1` [9-O08, 3-(1-benzofuran-2-yl)-2-cyano-N-[(furan-2-yl)methyl]prop-2-enamide], for which the “% of control remaining” value was 115.056%.
Consider `O=C(CCl)NC1CCCOc2c(F)cccc21` (stereo not drawn) [7-B14, 2-chloro-N-(9-fluoro-2,3,4,5-tetrahydro-1-benzoxepin-5-yl)acetamide], for which the “% of control remaining” value is listed as 82.2606%.
As to `Cc1ccc(NC(=O)C(C#N)=Cc2ccc(OC(F)F)cc2)c(C)c1` [9-G19, 2-cyano-3-[4-(difluoromethoxy)phenyl]-N-(2,4-dimethylphenyl)prop-2-enamide], the “% of control remaining” value is listed as 65.618%.
The value for `C=CC(=O)NCCN1C(=O)COc2ccccc21` [2-P07, N-[2-(3-oxo-3,4-dihydro-2H-1,4-benzoxazin-4-yl)ethyl]prop-2-enamide] was 93.2985%; that for `CN1C(=C(C#N)C(=O)CCl)N(C)c2ccccc21` [10-P18, 4-chloro-2-(1,3-dimethyl-2,3-dihydro-1H-1,3-benzodiazol-2-ylidene)-3-oxobutanenitrile] was 103.75%; that for `C=CC(=O)NCCC(=O)NC1CCSc2ccc(F)cc21` (stereo not drawn) [3-D08, N-{2-[(6-fluoro-3,4-dihydro-2H-1-benzothiopyran-4-yl)carbamoyl]ethyl}prop-2-enamide] was 94.0357%.
Turning to `C=CC(=O)NC1(Cn2cccn2)CC(F)(F)C1` [2-J17, N-{3,3-difluoro-1-[(1H-pyrazol-1-yl)methyl]cyclobutyl}prop-2-enamide], the “% of control remaining” value was determined as 103.394%.
The value for `CC1CCN(C(=O)CCl)c2cc(C(F)(F)F)ccc2S1` (stereo not drawn) [5-J07, 2-chloro-1-[2-methyl-7-(trifluoromethyl)-2,3,4,5-tetrahydro-1,5-benzothiazepin-5-yl]ethan-1-one] was 106.011%; that for `O=C(CCl)Nc1ccc(Cl)c(C(F)(F)F)c1` [4-I09, 2-chloro-N-[4-chloro-3-(trifluoromethyl)phenyl]acetamide] was 81.5626%; that for `CCc1cccc(NC(=O)CCl)c1` [4-F04, 2-chloro-N-(3-ethylphenyl)acetamide] was 88.8042%.
In the case of `C=CC(=O)N1CCC(C(=O)NC(C)(c2noc(C)n2)C2CC2)CC1` (stereo not drawn) [2-B10, N-[1-cyclopropyl-1-(5-methyl-1,2,4-oxadiazol-3-yl)ethyl]-1-(prop-2-enoyl)piperidine-4-carboxamide], the “% of control remaining” value worked out at 107.92%.
The value for `C=CC(=O)NCC1CCCCN1S(C)(=O)=O` (stereo not drawn) [1-D17, N-[(1-methanesulfonylpiperidin-2-yl)methyl]prop-2-enamide] was 114.989%.
Regarding `CC(Cl)C(=O)N(C)C1CS(=O)(=O)c2ccc(Cl)cc21` (stereo not drawn) [7-M14, 2-chloro-N-(5-chloro-1,1-dioxo-2,3-dihydro-1lambda6-benzothiophen-3-yl)-N-methylpropanamide], the “% of control remaining” value is on record as 73.7834%.
Regarding `C=CC(=O)Nc1c(C)ccc(Cl)c1CO` [1-O03, N-[3-chloro-2-(hydroxymethyl)-6-methylphenyl]prop-2-enamide], the “% of control remaining” value was 98.4615%.
For `CC(C)N(Cc1ccc(N(C)C)cc1)C(=O)CCl` [5-E06, 2-chloro-N-{[4-(dimethylamino)phenyl]methyl}-N-(propan-2-yl)acetamide], the “% of control remaining” value worked out at 95.4463%.
In the case of `COc1ccc(C=C(C#N)C(=O)NCc2ccco2)cc1` [8-J12, 2-cyano-N-[(furan-2-yl)methyl]-3-(4-methoxyphenyl)prop-2-enamide], the “% of control remaining” value is 136.432%.
Take `COc1cc(C=C(C#N)C(=O)Nc2cccc3ncccc23)ccc1O` [9-F22, 2-cyano-3-(4-hydroxy-3-methoxyphenyl)-N-(quinolin-5-yl)prop-2-enamide]: the “% of control remaining” value is given as 96.779%.
On to `O=C(CCl)NC(c1ccc(F)cc1)c1cccs1` (stereo not drawn) [4-K18, 2-chloro-N-[(4-fluorophenyl)(thiophen-2-yl)methyl]acetamide], for which the “% of control remaining” value was 119.295%.
The value for `CCCCNC(=O)C(C#N)=Cc1ccc(F)cc1F` [8-H14, N-butyl-2-cyano-3-(2,4-difluorophenyl)prop-2-enamide] was 87.9668%; that for `CSc1cccc(-n2c(C)cc(C(=O)CCl)c2C)c1` [10-J16, 2-chloro-1-{2,5-dimethyl-1-[3-(methylsulfanyl)phenyl]-1H-pyrrol-3-yl}ethan-1-one] was 12.8125%; that for `C=CC(=O)N(CC)c1cccc(C)c1` [1-A10, N-ethyl-N-(3-methylphenyl)prop-2-enamide] was 107.253%.
As for `C=CC(=O)NC1c2cccc(F)c2CCC1C` (stereo not drawn) [1-B21, N-(5-fluoro-2-methyl-1,2,3,4-tetrahydronaphthalen-1-yl)prop-2-enamide], the “% of control remaining” value was found to be 123.429%.
